B1: CPEB3 Ribozyme (parent)
chain: UAACAGGGGGCCACAGCAGAAGCGUUCACGUCGCAGCCCCUGUCAGAUUCUGGUGAAUCUGCGAAUUCUGCUGUAUAUCUC

Data on 167 variants can be found in the RNAGym collection of RNA variant scans (doi:10.1093/nar/gkz1192).

Read counts are not given, so values of variants with three or more changes are uncertain.

In this data set the parent is B1. As to the kind of experiment: self-cleavage, relative activity (ratio to wild type); higher = more cleavage; in vitro, sequencing. The method, boiled down: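 After error-prone PCR and barcoding, CPEB3 ribozyme mutant libraries were transcribed with T7 RNA polymerase at 37°C for 5 hours, then given 15 min with DNase I before an EDTA stop, and they cleaved during both steps. Reverse transcription with template switching preceded Illumina sequencing. Relative activity divides a variant's cleaved/total read fraction by the unmutated ribozyme's. At least 5 reads were required per variant, and three batches were averaged.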
As to A2G A20U U48C, the self-cleavage was determined as 0.07.

Consider A2G A20U U60A U80C, for which the self-cleavage came out at 0.3. The same measure for A2G A5U G42U U67C U80A: 0.05; for A2G A5G U60A U69C A77G U78C: 0.29.

Turning to A2C A3G A18G U25C A45U U66A A75U, the self-cleavage was found to be 0.

On to A2C C17U C37U U43C A47G C62U A65G, for which the self-cleavage amounted to 0.07.

A2G A20G U26A C29G U48C: the self-cleavage turned out to be 0.11. For A2G A18G U26C, the self-cleavage amounted to 0.55. Take U1G C12A A15G A21G U43A G63U U80C: the self-cleavage is 0.99. The same measure for A2G A5G A18G U66C U74C: 0.61; for A2G A5G U66A U76C: 0.52. With A2G A20U A45G U60A, the self-cleavage worked out at 0.08. To A2G A18G C32A C38U U72C U74C belongs 0.04. The same measure for A2G A5G C11G A35U: 0.17; for A2G A3G U72C: 1.04. To A2G A18G U41C belongs 0.51. With A2C C12U A15U A21G A45G U80C, the self-cleavage was 0.34.

With A2G A5G G7A G19U C27A U69C G70C, the self-cleavage turned out to be 0.26. To A2G A20U A56G C68G belongs 0.07. To A2C U25A U78C belongs 0.54; to A2G A20G U26C U31C U43C U80C, 0.5. On to A2G A20G G24A, for which the self-cleavage was determined as 0.32.

A2G A18G U26C U43C U48C U58C: the self-cleavage amounted to 0.28. To A2G A3G U54A belongs 0.81. With A2G A5G A45G, the self-cleavage came out at 0.57. To A2G A15C A18G U43G U48A belongs 0.08.

As to A2G A13U U80C, the self-cleavage turned out to be 0.89.

In the case of A2G A5U U43C A65G, the self-cleavage amounted to 0.24. To A2G A3G U26C A35U A64U U67C belongs 0.11; to A2G A3G C27U U69A U74A, 0.14; to A2G A5G C11U U66C U80A, 0.39. To A2G A13C U25C U26G A45G A56G belongs 0.47; to A2G A5G U51C, 0.19.

As to A2G A15G U26A C79U, the self-cleavage was 0.45.

A2G A15U G24U A45U U78A: the self-cleavage was 0.08. A2G A15G A45G: the self-cleavage is 0.21. The same measure for A2G A20U A57U U66A U80A: 0.43.

Regarding U1G G6A A13G C17U U80A, the self-cleavage was determined as 0.07. To U1G A45G U72C belongs 0.59; to A2G A20U A57G, 0.15.

For A2G A18G U58C A75U, the self-cleavage was determined as 0.2. As for A2G A15G U41A U43C A56C C62G, the self-cleavage came to 0.12. The same measure for A2G A13U A15G C40A G70A: 0.08; for A2G A15C U25C C40U: 0.56; for U1G G10A U25C U26C U31C U43C A57G: 0.06. Turning to U1G G10U U26C U78C, the self-cleavage was 0.07. For A2G A3U G7A C11U C38A U60A, the self-cleavage is 0.04.

For the variant U1G U60C U69C, the self-cleavage was determined as 0.16. To A2G A18U U78C belongs 0.12. For A2C A15U U41C G52A A65G A77C, the self-cleavage is 0.2. The same measure for A2G A18C C40A U41C U49C C50U U78C: 0.06. The same measure for A2G A13G U26C U41C: 0.5; for U1G A45G U54C A57G A65U U72C: 0.13; for A2G A5U U48C: 0.4. Turning to A2G A5U U25C U31C U51C U58A A64G, the self-cleavage was determined as 0.12. For the variant A2G A15U A47C U54C U72A, the self-cleavage amounted to 0.05.

Consider A2C A15U A18G U78C, for which the self-cleavage came to 0.11. The same measure for A2C U43A U49A: 0.89; for A2G A13C A64U: 0.47. On to A2G A18G G33A C62U U78C, for which the self-cleavage was found to be 0.21.

Consider A2G A18C A20G U51A A56U, for which the self-cleavage was determined as 0.08. The same measure for A2G A13G U26C C29U: 0.3; for A2G A20C A45U U54A: 0.48. For the variant A2G A20U U60C A64G, the self-cleavage came out at 0.05. As to A2G A3G A57U A77U, the self-cleavage stood at 0.39. For the variant A2C A13G A65G, the self-cleavage was 0.2. The same measure for A2G A20G U48C U51C: 0.27; for A2G A13U A18G A21G U74C: 0.69; for A2C A15G C23G G63A: 0.1. Turning to A2G A18U G24A C29U U72A, the self-cleavage is 0.14. With A2G A5G U26C U69A, the self-cleavage was found to be 0.5. Regarding A2C U67A U74C, the self-cleavage was 0.94. For the variant A2G A13G A18G A28U, the self-cleavage was 0.72.

Regarding A2C U66C U67C U69C U74C, the self-cleavage came out at 0.45. The same measure for A2G A20U A21G: 0.33; for A2G A3U A20G C32U C39G A56U: 0.06. For A2C A5U A15G G22A A35U C50A U60C, the self-cleavage turned out to be 0.05. The same measure for A2G A13U A45G U54G C59U A65G U80C: 0.14; for A2G A13U U49A: 0.46; for A2G A5G G52U U54A: 0.83. As to U1G G8A A15G G19C U66C, the self-cleavage stood at 0.05. The same measure for A2C C23U A35U U41A U60C: 0.14. To A2G A3C A77G belongs 1.12; to A2G A18G A21G U49C G63A A65G, 0.02; to A2C C11A U26A U51C U80C, 0.29. To A2G A15G U43A belongs 0.9. A2G A21G A28G G63A: the self-cleavage was determined as 0.53.

For A2G A5U A28G C29G A65G, the self-cleavage was found to be 0.42.

In the case of A2G A3U A18U, the self-cleavage came out at 0.77. Consider A2G A5G U31C U74C, for which the self-cleavage is 0.92. A2C A13U A57G U78A: the self-cleavage amounted to 0.89. Take A2G A13U A28U U41C A64G: the self-cleavage came to 0.19. With A2G A13G A20G, the self-cleavage was determined as 0.43.

With A2C U31A A35U U41C G53A A75G, the self-cleavage turned out to be 0.14. The same measure for A2G A13U A15U A65G: 0.1; for A2G A20G C38U: 0.51; for A2G A18G U43C: 0.4. Regarding A2C U26C A57G, the self-cleavage was determined as 0.38. The same measure for U1G A47G U60A: 0.35; for A2G A18U A20G U41C U43A U72C: 0.14. For A2G A13G A35U, the self-cleavage was 0.73. To A2C U26A U49C U51A belongs 0.2; to A2G A5G G16A C38A, 0.12.

As for A2G A3G C11U A13G C29G G33A, the self-cleavage was found to be 0.45. For the variant A2G A18U U25C U72A, the self-cleavage amounted to 0.08. In the case of A2G A5G A28G U67C, the self-cleavage came to 0.1. Regarding A2G A13G C38U U51C A64G, the self-cleavage turned out to be 0.21. Regarding A2G A5U A13U G24C G73A, the self-cleavage amounted to 0.49. For A2C C27G A35G C37U U49C A65G, the self-cleavage is 0.05. To U1G A28G U48C belongs 0.26; to A2G A18G A20G G33U U72G U80A, 0.08. Regarding A2G A5C G7A U26C U49C, the self-cleavage was found to be 0.09.

On to A2G A5U C37A, for which the self-cleavage turned out to be 0.16. A2G A13G A15G U41A U48C: the self-cleavage was 0.1. With A2G A5U U54C U76C, the self-cleavage came to 1.12. To A2G A18U A56G U67A belongs 0.19. The same measure for A2G A13U U41C U67A: 0.39; for A2G A15G U31A U43A A45U: 0.2; for U1G U66C U72A: 0.18.

Regarding A2G A18U C39A A45U G46C A77G, the self-cleavage was found to be 0.01. The same measure for A2G A5G A18G U60C U67C G70A: 0.11. Turning to A2G A3G A15G U31A U51A U74G, the self-cleavage turned out to be 1.07. The same measure for A2G A3C U31C G33A A47U: 0.12; for A2G A3G A13U U25A C39A U72C: 0.09. As to A2G A20U A21G A35U U43C A56U, the self-cleavage was found to be 0.24. The same measure for U1G U69C U78A: 0.33; for U1G G9U A21G: 0.31. To A2G A3G G10C U69C belongs 0.22; to A2G A13U A20G A47G U58A U72C U78A, 0.03. To A2G A5G A13U A15U U66C U76C belongs 0.3; to A2C U51A U66C, 0.54.

Regarding A2G A18G A45G U66C U67C, the self-cleavage was determined as 0. The same measure for A2G A5G U31C: 0.65; for A2C A15G U51A: 0.79; for A2G A20G U41A U54G A64G U74C: 0.25. To A2G A5G A13G A15G A18G U74A belongs 0.7; to U1G U41A G53A U60C, 0.18; to A2G A13U A20G U41A A65G U69A U72C, 0.07.

A2G A20C U43C U80C: the self-cleavage turned out to be 0.09. The same measure for A2G A15C A21U U31C U41C U43A U67C: 0.03.

As to A2C A28U U54A U72C, the self-cleavage is 0.6.

In the case of A2G A13G U43C U54C U69A U74A, the self-cleavage amounted to 0.09. To A2G A20G A28G C40A belongs 0.39.

For A2G A3U G7A A28G A35G A64G, the self-cleavage is 0.08. The same measure for A2G A5G A13C A18G: 0; for A2G A20C C40G: 0.35; for A2G A15C U25C U60A U67C: 0.29. Consider A2G A18U A45G U60C, for which the self-cleavage came to 0.58. The same measure for A2G A20U A64G: 0.29; for U1G U26A A64U A65G: 0.12; for A2C A35G C44U U66C U78G: 0.25. To A2C A35U A45G U54C belongs 0.26. The same measure for A2C C44U U58A U60C: 0.04. As to A2C G46A A47G A65G U69C U76C, the self-cleavage is 0.06. In the case of A2C A20G A28G G36U U58A, the self-cleavage was 0.39. Take A2G A13G A35U U60A: the self-cleavage is 0.05. In the case of A2G A5U U31C C62U, the self-cleavage is 0.2.

For the variant A2C U26A A28U U54C C68G, the self-cleavage was 0.04. With A2G A3G A45C U80C, the self-cleavage was found to be 0.25.

As for A2G A5G U49A A56G U69A, the self-cleavage stood at 0.07. Take A2G A21C C40U G61A U66C G73A U78C: the self-cleavage worked out at 0.14. The same measure for U1G U72A U76A U78C: 0.52; for A2G A18G A28U G52C G63U: 0.26. The same measure for A2G A3U A45U A56G U80C: 0.45; for A2G A18U U48C: 0.24. Turning to A2C U25C C59U A65C, the self-cleavage turned out to be 0.27. With A2G A3G U25C C40G U41A, the self-cleavage came out at 0.76.
